# The other results are listed elsewhere or left out. Most values come without repeats; read them as rough.
# Test system: LB2518-MEL
# Assay: cell count relative to DMSO control; melanoma cells; higher = more viable cells
# Conditions: library dose: standard library concentration; 72 h
# 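Note: cells treated in 1,536-well plates, then fixed and DAPI-stained, with nuclei counted from automated high-throughput microscope images.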
row,Compound,cell count [%]
1,"COc1cc([C@@H]2c3cc4c(cc3[C@@H](O[C@@H]3O[C@@H]5CO[C@@H](C)O[C@H]5[C@H](O)[C@H]3O)[C@H]3COC(=O)[C@H]23)OCO4)cc(OC)c1O [etoposide] + NC(=O)Nc1cc(-c2cccc(F)c2)sc1C(=O)N[C@H]1CCCNC1 [AZD7762] (first compound 0.1 µM, partner dose 0.1 µM)",64.2
2,"CCN(CC)CCNC(=O)c1c(C)[nH]c(/C=C2\C(=O)Nc3ccc(F)cc32)c1C [sunitinib] + Nc1ccn([C@@H]2O[C@H](CO)[C@@H](O)C2(F)F)c(=O)n1 [gemcitabine] (first compound 2 µM, partner dose 0.002 µM)",45.9
3,"C[C@]1(O)C[C@@H](c2nc(-c3ccc4ccc(-c5ccccc5)nc4c3)c3c(N)nccn32)C1 + O=C(O)c1ccc2c(c1)nc(Nc1cccc(Cl)c1)c1ccncc12 [CX4945] (first compound 2 µM, partner dose 2 µM)",100
4,"COc1cc([C@@H]2c3cc4c(cc3[C@@H](O[C@@H]3O[C@@H]5CO[C@@H](C)O[C@H]5[C@H](O)[C@H]3O)[C@H]3COC(=O)[C@H]23)OCO4)cc(OC)c1O [etoposide] + CS(=O)(=O)c1ccc(C(=O)Nc2ccc(Cl)c(-c3ccccn3)c2)c(Cl)c1 [vismodegib] (first compound 0.1 µM, partner dose 5 µM)",88.9
5,"Cn1cnc2c(F)c(Nc3ccc(Br)cc3Cl)c(C(=O)NOCCO)cc21 [selumetinib] + COC(=O)c1sccc1S(=O)(=O)Nc1ccc(Nc2ccccc2)cc1OC [GSK0660] (first compound 0.075 µM, partner dose 5 µM)",48.1
6,"CCN(CC)CCNC(=O)c1c(C)[nH]c(/C=C2\C(=O)Nc3ccc(F)cc32)c1C [sunitinib] + COc1cc(Nc2ncc(F)c(Nc3ccc4c(n3)NC(=O)C(C)(C)O4)n2)cc(OC)c1OC [Tamatinib] (first compound 2 µM, partner dose 2 µM)",106
7,"Cn1cnc2c(F)c(Nc3ccc(Br)cc3Cl)c(C(=O)NOCCO)cc21 [selumetinib] + CC(C)(C)c1cnc(CSc2cnc(NC(=O)C3CCNCC3)s2)o1 [SNS-032] (first compound 0.075 µM, partner dose 0.05 µM)",40
8,"C[C@]1(O)C[C@@H](c2nc(-c3ccc4ccc(-c5ccccc5)nc4c3)c3c(N)nccn32)C1 + CCN(CC)CCNC(=O)c1c(C)[nH]c(/C=C2\C(=O)Nc3ccc(F)cc32)c1C [sunitinib] (first compound 2 µM, partner dose 2 µM)",68.2
9,"COc1cc([C@@H]2c3cc4c(cc3[C@@H](O[C@@H]3O[C@@H]5CO[C@@H](C)O[C@H]5[C@H](O)[C@H]3O)[C@H]3COC(=O)[C@H]23)OCO4)cc(OC)c1O [etoposide] + O=C(Nc1cccc(Cl)c1)Nc1ncc(CCNc2ncnc3ccsc23)s1 [SNS314] (first compound 0.1 µM, partner dose 0.004 µM)",66.9
10,"CCN(CC)CCNC(=O)c1c(C)[nH]c(/C=C2\C(=O)Nc3ccc(F)cc32)c1C [sunitinib] + CCCS(=O)(=O)Nc1ccc(F)c(C(=O)c2c[nH]c3ncc(Cl)cc23)c1F [PLX4720] (first compound 2 µM, partner dose 0.4 µM)",71.5
11,"C[C@]1(O)C[C@@H](c2nc(-c3ccc4ccc(-c5ccccc5)nc4c3)c3c(N)nccn32)C1 + Nc1cccc2c1CN(C1CCC(=O)NC1=O)C2=O [lenalidomide] (first compound 2 µM, partner dose 5 µM)",86.1
12,"Cn1cnc2c(F)c(Nc3ccc(Br)cc3Cl)c(C(=O)NOCCO)cc21 [selumetinib] + CCc1ccc(CCOc2ccc(CC3SC(=O)NC3=O)cc2)nc1 [pioglitazone] (first compound 0.075 µM, partner dose 10 µM)",48.7
13,"CCN(CC)CCNC(=O)c1c(C)[nH]c(/C=C2\C(=O)Nc3ccc(F)cc32)c1C [sunitinib] + CCCCCCCCc1ccc(CCC(N)(CO)CO)cc1 [fingolimod] (first compound 2 µM, partner dose 10 µM)",0.298
14,"CCN(CC)CCNC(=O)c1c(C)[nH]c(/C=C2\C(=O)Nc3ccc(F)cc32)c1C [sunitinib] + NCC(=O)Nc1ccc(-n2nc(C(F)(F)F)cc2-c2ccc3c(ccc4ccccc43)c2)cc1 [OSU03012] (first compound 2 µM, partner dose 5 µM)",63.4
15,"Cn1cnc2c(F)c(Nc3ccc(Br)cc3Cl)c(C(=O)NOCCO)cc21 [selumetinib] + O=C(O)C(=O)Nc1sc2c(c1C(=O)O)CCNC2 [TCS401] (first compound 0.075 µM, partner dose 8.33333 µM)",54
16,"COc1cc([C@@H]2c3cc4c(cc3[C@@H](O[C@@H]3O[C@@H]5CO[C@@H](C)O[C@H]5[C@H](O)[C@H]3O)[C@H]3COC(=O)[C@H]23)OCO4)cc(OC)c1O [etoposide] + C=C(c1ccc(C(=O)O)cc1)c1cc2c(cc1C)C(C)(C)CCC2(C)C [Bexarotene] (first compound 0.1 µM, partner dose 10 µM)",84.7
17,"C[C@]1(O)C[C@@H](c2nc(-c3ccc4ccc(-c5ccccc5)nc4c3)c3c(N)nccn32)C1 + C=C(c1ccc(C(=O)O)cc1)c1cc2c(cc1C)C(C)(C)CCC2(C)C [Bexarotene] (first compound 2 µM, partner dose 10 µM)",78.9
18,"C[C@]1(O)C[C@@H](c2nc(-c3ccc4ccc(-c5ccccc5)nc4c3)c3c(N)nccn32)C1 + NC1(c2ccc(-c3nc4ccn5c(=O)[nH]nc5c4cc3-c3ccccc3)cc2)CCC1 [MK2206] (first compound 2 µM, partner dose 2 µM)",72.4
19,"COc1cc([C@@H]2c3cc4c(cc3[C@@H](O[C@@H]3O[C@@H]5CO[C@@H](C)O[C@H]5[C@H](O)[C@H]3O)[C@H]3COC(=O)[C@H]23)OCO4)cc(OC)c1O [etoposide] + Cn1c(Nc2ccc(C(F)(F)F)cc2)nc2cc(Oc3ccnc(-c4ncc(C(F)(F)F)[nH]4)c3)ccc21 [CHIR265] (first compound 0.1 µM, partner dose 0.4 µM)",30.5
20,"Cn1cnc2c(F)c(Nc3ccc(Br)cc3Cl)c(C(=O)NOCCO)cc21 [selumetinib] + O=c1cc(-c2cccc3c2Sc2ccccc2S3)oc(N2CCOCC2)c1 [KU55933] (first compound 0.075 µM, partner dose 5 µM)",42.5
21,"C[C@]1(O)C[C@@H](c2nc(-c3ccc4ccc(-c5ccccc5)nc4c3)c3c(N)nccn32)C1 + Nc1ncn([C@H]2C[C@H](O)[C@@H](CO)O2)c(=O)n1 [decitabine] (first compound 2 µM, partner dose 0.5 µM)",68
22,"COc1cc([C@@H]2c3cc4c(cc3[C@@H](O[C@@H]3O[C@@H]5CO[C@@H](C)O[C@H]5[C@H](O)[C@H]3O)[C@H]3COC(=O)[C@H]23)OCO4)cc(OC)c1O [etoposide] + O=C(Nc1ccccc1)c1cc([N+](=O)[O-])ccc1Cl [GW9662] (first compound 0.1 µM, partner dose 10 µM)",65.4
23,"CCN(CC)CCNC(=O)c1c(C)[nH]c(/C=C2\C(=O)Nc3ccc(F)cc32)c1C [sunitinib] + NC1(c2ccc(-c3nc4ccn5c(=O)[nH]nc5c4cc3-c3ccccc3)cc2)CCC1 [MK2206] (first compound 2 µM, partner dose 2 µM)",45.6
24,"Cn1cnc2c(F)c(Nc3ccc(Br)cc3Cl)c(C(=O)NOCCO)cc21 [selumetinib] + COCC[n+]1c2c(n(Cc3cnccn3)c1C)C(=O)c1ccccc1C2=O [YM155] (first compound 0.075 µM, partner dose 0.002 µM)",27.4
25,"Cn1cnc2c(F)c(Nc3ccc(Br)cc3Cl)c(C(=O)NOCCO)cc21 [selumetinib] + NC1(c2ccc(-c3nc4ccn5c(=O)[nH]nc5c4cc3-c3ccccc3)cc2)CCC1 [MK2206] (first compound 0.075 µM, partner dose 2 µM)",32.8
26,"COc1cc([C@@H]2c3cc4c(cc3[C@@H](O[C@@H]3O[C@@H]5CO[C@@H](C)O[C@H]5[C@H](O)[C@H]3O)[C@H]3COC(=O)[C@H]23)OCO4)cc(OC)c1O [etoposide] + COc1cc(Nc2ncc(F)c(Nc3ccc4c(n3)NC(=O)C(C)(C)O4)n2)cc(OC)c1OC [Tamatinib] (first compound 0.1 µM, partner dose 2 µM)",83.4
27,"Cn1cnc2c(F)c(Nc3ccc(Br)cc3Cl)c(C(=O)NOCCO)cc21 [selumetinib] + CC(C)C[C@H](NC(=O)[C@H](Cc1ccccc1)NC(=O)c1cnccn1)B(O)O [Bortezomib] (first compound 0.075 µM, partner dose 0.005 µM)",1.44
28,"COc1cc([C@@H]2c3cc4c(cc3[C@@H](O[C@@H]3O[C@@H]5CO[C@@H](C)O[C@H]5[C@H](O)[C@H]3O)[C@H]3COC(=O)[C@H]23)OCO4)cc(OC)c1O [etoposide] + Oc1nc(-c2ccc(C(F)(F)F)cc2)nc2c1CSCC2 [XAV939] (first compound 0.1 µM, partner dose 10 µM)",80.6
29,"COc1cc([C@@H]2c3cc4c(cc3[C@@H](O[C@@H]3O[C@@H]5CO[C@@H](C)O[C@H]5[C@H](O)[C@H]3O)[C@H]3COC(=O)[C@H]23)OCO4)cc(OC)c1O [etoposide] + COc1ccc(C2=N[C@@H](c3ccc(Cl)cc3)[C@@H](c3ccc(Cl)cc3)N2C(=O)N2CCNC(=O)C2)c(OC(C)C)c1 [Nutlin-3] (first compound 0.1 µM, partner dose 0.5 µM)",73.7

# Source: the supplement of paper PMC4604168 (melanoma cell lines)
